# Experimental data as given in the supplement of paper PMC9446081.
# Hit rate of the full screen: of about 39,000 compounds, about 220 (0.56%) showed activity. The list shows a part of the results.
# System: Escherichia coli K-12 BW25113
# Assay: relative growth (OD600 normalised to plate interquartile mean) (fraction); higher = less growth inhibition, active = 0.2 or less
# Details: 50 µM; LB; incubation time: overnight (16-24 h)
# 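Note: static incubation at 37 °C against the wild-type strain, values averaged over two biological replicates.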
row,SMILES,relative growth
1,COc1ccc(S(=O)(=O)N(C)C[C@H]2Oc3ccc(NS(=O)(=O)c4ccccc4)cc3C(=O)N([C@@H](C)CO)C[C@H]2C)cc1,inactive: 1.02
2,COCC#Cc1ccc2c(c1)O[C@H](CN(C)C(=O)COC)[C@@H](C)CN([C@@H](C)CO)S2(=O)=O,inactive: 1
3,NCCOc1ccccc1Cc1ccccc1,inactive: 0.945
4,CCNc1nc(NCC)nc(C(=O)OCCO)n1,inactive: 1.01
5,C[C@H](CO)N1C[C@H](C)[C@H](CN(C)Cc2ccc(C(F)(F)F)cc2)Oc2ccc(NC(=O)Cc3cn(C)c4ccccc34)cc2CC1=O,inactive: 1.04
6,CC(C)NC(=O)N(C)C[C@@H]1Oc2ccc(NC(=O)NC3CCCCC3)cc2C(=O)N([C@H](C)CO)C[C@H]1C,inactive: 0.987
7,Cc1noc(C)c1NC(=O)N[C@@H]1CC[C@@H](CC(=O)N2CCN(C)CC2)O[C@H]1CO,inactive: 1
8,C[C@@H]1CN([C@H](C)CO)C(=O)c2cc(NC(=O)c3ccncc3)ccc2O[C@H]1CN(C)C(=O)Nc1ccc2c(c1)OCO2,inactive: 0.982
9,COCCOC(=O)N1C(=O)[C@@]2(c3ccccc31)[C@H](c1ccc(O)cc1)N1[C@H](c3ccccc3)[C@H](c3ccccc3)OC(=O)[C@H]1[C@@H]2C(=O)N1CCc2cc(OC)c(OC)cc2C1,inactive: 0.982
10,C=CCn1c(O)c(C#N)c(C)cc1=O,inactive: 1.03
11,C[C@@H]1CCCCO[C@@H](CN(C)S(=O)(=O)c2cccs2)[C@H](C)CN([C@@H](C)CO)C(=O)c2cc(NC(=O)NC3CCCCC3)ccc2O1,inactive: 1.01
12,CN1CCN([C@@H](CNC(=O)C(=O)NCc2ccco2)c2ccc3c(c2)OCO3)CC1,inactive: 1.01
13,Cc1ccc(-c2cnc3c(c2)C(=O)N([C@H](C)CO)C[C@@H](C)[C@@H](CN(C)C(=O)Cc2ccncc2)O3)cc1,inactive: 1
14,C[C@H](CO)N1C[C@H](C)[C@@H](CN(C)C(=O)Cc2ccccn2)Oc2cc(-c3ccc(C(=O)N(C)C)cc3)ccc2S1(=O)=O,inactive: 1.02
15,O=C(C[C@@H]1C[C@H]2c3cc(NC(=O)Nc4ccccc4F)ccc3O[C@H]2[C@H](CO)O1)NCc1ccc(Oc2ccccc2)cc1,inactive: 0.983
16,COc1ccc(CN(C)C[C@H]2OCCCC[C@@H](C)Oc3ccc(NC(=O)Nc4cccc5ccccc45)cc3C(=O)N([C@@H](C)CO)C[C@H]2C)cc1,inactive: 0.797
17,C[C@@H]1CN([C@H](C)CO)C(=O)Cc2cc(NS(=O)(=O)c3ccccc3)ccc2O[C@@H]1CN(C)S(=O)(=O)c1cn(C)cn1,inactive: 1.01
18,Cc1noc(C)c1NC(=O)N(C)C[C@H]1Oc2c(NC(=O)c3ccncc3)cccc2C(=O)N([C@@H](C)CO)C[C@H]1C,inactive: 0.964
19,CCS(=O)(=O)Nc1ccc2c(c1)C(=O)N(C)[C@@H]1CC[C@@H](CC(=O)N[C@H]3CCN(Cc4ccccc4)C3)O[C@H]1CO2,inactive: 0.968
20,CC(=O)OC(CC(=O)O)[N+](C)(C)C.[Cl-] (configuration not stated),inactive: 1.06
21,Cc1noc(C)c1NC(=O)Nc1ccc2c(c1)CC(=O)N([C@H](C)CO)C[C@H](C)[C@@H](CN(C)S(=O)(=O)c1cccs1)O2,inactive: 1.02

row,SMILES,relative growth
1,O=C(O)c1cc(=O)cc(C(=O)O)o1,inactive: 0.996
2,CNc1ncnc(Cl)c1N,inactive: 1
3,CO[C@@H]1CN(C)C(=O)c2cc(NS(=O)(=O)c3cn(C)cn3)ccc2OC[C@H](C)N(CCC(F)(F)F)C[C@@H]1C,inactive: 0.994
4,CC(=O)NCCCC[C@@H]1NC(=O)[C@@H]2C[C@H](C(=O)NCCCCCNC(=O)CS)[C@H](c3cccc(OCCO)c3)N2C1=O,inactive: 0.924
5,C[C@@H]1CN([C@@H](C)CO)C(=O)c2cc(NC(=O)CCCN(C)C)ccc2O[C@H]1CN(C)S(=O)(=O)c1cccs1,inactive: 1
6,C[C@H](CO)N1C[C@H](C)[C@H](CN(C)Cc2ccc(C(=O)O)cc2)Oc2ccc(NC(=O)CCCN(C)C)cc2C1=O,inactive: 1.01
7,C[C@H](CO)N1C[C@H](C)[C@@H](CN(C)C(=O)Nc2ccc(F)cc2)Oc2ccc(NS(C)(=O)=O)cc2CC1=O,inactive: 0.992
8,COCC(=O)Nc1ccc2c(c1)OC[C@@H](C)N(Cc1ccccc1F)C[C@H](C)[C@@H](OC)CN(C)C2=O,inactive: 1.01
9,C[C@@H]1CN([C@@H](C)CO)C(=O)c2cc(C#Cc3cccnc3)cnc2O[C@@H]1CN(C)Cc1ccc(F)cc1,inactive: 1
10,CC(C)NC(=O)Nc1cccc2c1O[C@@H](CN(C)S(=O)(=O)c1ccc(F)cc1)[C@H](C)CN([C@H](C)CO)C2=O,inactive: 1
11,C[C@H](CO)N1C[C@H](C)[C@@H](CN(C)Cc2ccc(Cl)c(Cl)c2)Oc2ccc(NC(=O)Nc3cccc4ccccc34)cc2CC1=O,inactive: 0.996
12,CCCC(=O)Nc1ccc2c(c1)C(=O)N(C)C[C@@H](OC)[C@H](C)CN(C(=O)CN1CCOCC1)[C@H](C)CO2,inactive: 0.993
13,C#CCN([C@H](/C=C/C1CC1)[C@@H](O)Cc1ccccc1)[C@@H](Cc1ccc(-n2cc(C(=O)NO)nn2)cc1)C(=O)OC,inactive: 0.984
14,Cl.Cl.OCCN1CCN(CCCN2c3ccccc3Sc3ccc(C(F)(F)F)cc32)CC1,inactive: 0.973
15,C[C@@H]1CN([C@@H](C)CO)C(=O)c2cc(NC(=O)Nc3ccc(C(F)(F)F)cc3)ccc2O[C@@H](C)CCCCO[C@H]1CN(C)Cc1ccccc1,inactive: 1.01
16,C[C@H](CO)N1C[C@H](C)[C@@H](CN(C)Cc2ccc(C(=O)O)cc2)OCCCC[C@H](C)Oc2ccc(NC(=O)CCC(F)(F)F)cc2C1=O,inactive: 1.02
17,Cc1cnc(Nc2ccc(F)cc2Cl)nc1-c1c[nH]c(C(=O)N[C@H](CO)c2cccc(Cl)c2)c1,inactive: 1.02
18,C[C@@H]1CN([C@@H](C)CO)C(=O)Cc2cc(NC(=O)Cn3cnnn3)ccc2O[C@@H]1CN(C)C(=O)NC1CCCCC1,inactive: 1.01
19,C[C@H](CO)N1C[C@H](C)[C@H](CN(C)Cc2ccc(Cl)c(Cl)c2)OCCCC[C@H](C)Oc2ccc(NC(=O)c3ccccc3)cc2C1=O,inactive: 0.995
20,CCCN1C[C@@H](C)[C@@H](OC)CN(C)C(=O)c2cc(NS(=O)(=O)c3cn(C)cn3)ccc2OC[C@H]1C,inactive: 1
21,C[C@@H]1CN([C@@H](C)CO)C(=O)c2cc(NC(=O)c3ccccc3)ccc2O[C@@H](C)CCCCO[C@@H]1CN(C)Cc1ccc(C(F)(F)F)cc1,inactive: 0.996

row,SMILES,relative growth
1,COc1ccc(S(=O)(=O)Nc2ccc3c(c2)C(=O)N([C@@H](C)CO)C[C@H](C)[C@H](CN(C)S(=O)(=O)c2ccc(C)cc2)O3)cc1,inactive: 1.01
2,Cc1noc(C)c1S(=O)(=O)N(C)C[C@H]1Oc2ccc(NC(=O)c3ccncc3)cc2CC(=O)N([C@H](C)CO)C[C@@H]1C,inactive: 0.999
3,C[C@H](CO)N1C[C@H](C)[C@H](CN(C)C(=O)Nc2cccc3ccccc23)Oc2ccc(NC(=O)Nc3cccc4ccccc34)cc2CC1=O,inactive: 0.989
4,O=C([C@@H]1[C@@H](CO)[C@@H]2Cn3c(cccc3=O)[C@@H]2N1CC1CCCC1)N1CCOCC1,inactive: 1.05
5,O=C(Nc1ccc(Cl)cc1)c1sc2ccccc2c1Cl,inactive: 0.993
6,COc1ccc(NC(=O)Nc2ccc3c(c2)C(=O)N([C@@H](C)CO)C[C@H](C)[C@@H](CN(C)Cc2ccc(Oc4ccccc4)cc2)O3)cc1,inactive: 0.904
7,CNc1nc(OC)cc(OC)n1,inactive: 0.995
8,C[C@@H](NCc1cnc(N(C)C)s1)C(N)=O,inactive: 1.03
9,CC(C)CC#Cc1ccc2c(c1)O[C@@H](CN(C)C(=O)c1cccnc1)[C@H](C)CN([C@H](C)CO)S2(=O)=O,inactive: 1.01
10,Cc1noc(C)c1S(=O)(=O)Nc1ccc2c(c1)CC(=O)N([C@H](C)CO)C[C@@H](C)[C@@H](CN(C)S(C)(=O)=O)O2,inactive: 0.995
11,Cc1ccc(S[C@]2(C(=O)NC3CC3)CC(=O)N(Cc3ccccc3Cl)[C@@H]2c2ccc(CO)cc2)cc1,inactive: 1.02
12,COc1ccc(NC(=O)Nc2ccc3c(c2)CC(=O)N([C@@H](C)CO)C[C@@H](C)[C@H](CN(C)C(=O)Nc2ccc(C(F)(F)F)cc2)O3)cc1,inactive: 1.02
13,C[C@H](CO)N1C[C@H](C)[C@H](CN(C)Cc2ccc(C(F)(F)F)cc2)OCCCC[C@H](C)Oc2ccc(NC(=O)c3ccncc3)cc2C1=O,inactive: 0.935
14,COc1ccc(S(=O)(=O)N(C)C[C@@H]2OCCCC[C@@H](C)Oc3ccc(NC(=O)c4ccccc4)cc3C(=O)N([C@H](C)CO)C[C@H]2C)cc1,inactive: 1.01
15,COc1ccc(NC(=O)N(C)C[C@H]2Oc3ccc(NS(=O)(=O)c4cn(C)cn4)cc3CC(=O)N([C@H](C)CO)C[C@H]2C)cc1,inactive: 1.04
16,C[C@@H]1CN([C@H](C)CO)C(=O)Cc2cc(NS(C)(=O)=O)ccc2O[C@@H]1CN(C)C,inactive: 0.976
17,Cc1noc(C)c1NC(=O)N(C)C[C@@H]1Oc2c(NS(=O)(=O)c3cn(C)cn3)cccc2C(=O)N([C@H](C)CO)C[C@@H]1C,inactive: 1.01
18,COc1ccc(CN(C)C[C@H]2OCCCC[C@@H](C)Oc3ccc(NC(=O)c4ccncc4)cc3C(=O)N([C@H](C)CO)C[C@@H]2C)cc1,inactive: 1.01
19,COC(=O)Nc1nc2ccc(Sc3ccccc3)cc2[nH]1,inactive: 0.879
20,Cc1ccc(S(=O)(=O)Nc2ccc3c(c2)C(=O)N([C@H](C)CO)C[C@@H](C)[C@H](CN(C)S(=O)(=O)c2ccc(C)cc2)OCCCC[C@@H](C)O3)cc1,inactive: 1.01
